According to the RNAGym collection of RNA variant scans (doi:10.1073/pnas.2313332121):
Variants at the floor of the assay are shown more often than the library holds them.

B1: TPR 5TU (parent)
chain: GGAUCUUCUCGAUCUAACAAAAAAGACAAAUCUGCCACAAAGCUUGAGAGCAUCUUCGGAUGCAGAGGCGGCAGCCUUCGGUGGCGCGAUAGCGCCAACGUUCUCAACUAUGACACGCAAAACGCGUGCUCCGUUGAAUGGAGUUUAUCAUG

Variants of: B1
Experiment: polymerase ribozyme fitness, log enrichment relative to wild type (log ratio); higher = more active; in vitro selection for triplet polymerase activity
Method in brief: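 Each subunit of a heterodimeric triplet polymerase ribozyme was mutagenized into a library by PCR, transcribed, and subjected to one round of in vitro selection, run in triplicate. Libraries were annealed with a biotinylated primer, the partner subunit and triplets, incubated frozen at −7 °C, and extended constructs were gel-excised, captured on streptavidin beads and recovered by RT-PCR. Input and output libraries were sequenced on Illumina, keeping genotypes with ≥10 input reads and ≥1 read per output. Fitness is log base 2 of genotype enrichment divided by wild-type enrichment, from inverse-variance-weighted replicate averages.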

Q: For GGAUCUUCUCGAUCUAACAAAAAAGACAAAUCUGCCACAAAACUUGAGAGCAUCUUCGGAUGCAGAGGCGGCAGCCUUCGGUGGCUCGAUAGCGCCAACGUUCUCAACUAUGACACGCAAAACGCGUGCUCCGUUGAAUGGAGUUUAUCAUG, which “polymerase ribozyme fitness (log ratio)” value is on record?
A: ≤ -4.2

Q: For GGAUCUUCUCGAUCUAACAAAAAAGACAAAUCUGCCACAAAACUUGAGAGCAUCUACGGAUGCAGAGGCGGCAGCCUUCGGUGACGCGAUAGCGCCAACGUUCUCAACUAUGACACGCAAAACGCGAGCUCCGUUGAAUGGAGUUUAUCAUG, which “polymerase ribozyme fitness (log ratio)” value is on record?
A: ≤ -4.2

Q: With GGAUCUUCUCGAUCUAACAAAAAAGACAAAUCUGCCACAAAACUUGAGAGCAUCUGCGUAUGCAGAGGCGCCAGCCUUCGGUGGCGCGAUAGCGCCAACGUUCUCACCUAUGACACGCAAAACGCGUGCUCCGGUGAAUGGAGUUUAUCAUG as the variant, how does the “polymerase ribozyme fitness (log ratio)” value read?
A: ≤ -4.2

Q: For GGAUCUUCUCGAUCUAACAAAAAAGACAAAUCUGCCACAAAACUUGAGAGCAUCUACGGAUGCAGAUGCGGCAGCCUUCGGUGGCGCGAUAGCACCAACGUUCUCAACUAUGACACGCAAAACGCGUGCUCCGUUGAAUGGAGUUUAUCAUG, which “polymerase ribozyme fitness (log ratio)” value is on record?
A: ≤ -4.2

Q: With GGAUCUUCUCGAUCUAACAAAAAAGACAAAUCUGCCACAAAACUUGAGAGCAACUUCGGAUGCAGAGGCGGCAGCCUUCGGUGGCGCGAUAGCGCUCACGUUAUCAACUUUGACACGCAAAACGCGUGCUCCCUUGAAUGGAGUUUAUCAUG as the variant, how does the “polymerase ribozyme fitness (log ratio)” value read?
A: ≤ -4.2

Q: For GGAUCUUCUCGAUCUAACAAAAAAGACAAAUCUGCCACAAAACUUGAGAGCAUCUUCGGAUGCAUAGGCGGCAGCCUUCCGUGGCGCGAUAGCGCCAACGUUCUCAACUAUGACACGCAAAACGCGUGCUCCGUUGAAUGGAGUUUAUCAUG, which “polymerase ribozyme fitness (log ratio)” value is on record?
A: ≤ -4.2

Q: Which “polymerase ribozyme fitness (log ratio)” value does the source give for GGAUCUUCUCGAUCUAACAAAAAAGACAAAUCUGCCACAAAACAUGAGAGCAUCUUCGUAUGCAGAGGCGGCAGCCUUCGGUGGCGCGAUAGCGCCAACGUUCGCAACUAUGACACGCAAAGCGCAUGCUCCGUUGAAUGGAGUUUAUCAUG here?
A: ≤ -4.2

Q: With GGAUCUUCUCGAUCUAACAAAAAAGACAAAUCUGCCACAAAACUUGAGAGCAUCUUCGGAUGCAGAGGCGGCAGCCUUCGGUGGCGCAAUAGCGCCAACGUUCUCAACUAUGACACGCAAAACAUGUGAUCCGUUGAAUGGAGUUUAUCAUG as the variant, how does the “polymerase ribozyme fitness (log ratio)” value read?
A: ≤ -4.2

Q: For GGAUCUUCUCGAUCUAACAAAAAAGACAAAUCUGCCACAAAACUAGAGAGCAUCUUCGGAUGCAGAGGCGGCAGCCUUCGGUGGUGCGAUAGCACCCACGUUCUCAACUAUGACACGCAAAACGCGUGCUCCGUUGAAUGGAGUUUAUCAUG, which “polymerase ribozyme fitness (log ratio)” value is on record?
A: ≤ -4.2

Q: Which “polymerase ribozyme fitness (log ratio)” value does the source give for GGAUCUUCUCGAUCUAACAAAAAAGACAAAUCUGCCACAAAACAUGAGAGCAUCUUCGGAUACAGAGGCGGCAGCCUUCGGUGGCGCAAUAGCGCCAACGUUCUCAACUAUGACACGCAAAACGCGUGCUCCGUUGAAUGGAGUUUAUGAUG here?
A: ≤ -4.2

Q: Which “polymerase ribozyme fitness (log ratio)” value does the source give for GGAUCUUCUCGAUCUAACAAAAAAGACAAAUCUGCCACAAAACAUGAGAGCAUCUUCGGAUGCAGAGGCGGCAGCCUUCGGUGGCGCGAUAGCUCCAAAGUUCUCAACUAUGACACGCAAAACGCGUGCUCCCUUGAAUGGAGUUUAUCAUG here?
A: ≤ -4.2

Q: Which “polymerase ribozyme fitness (log ratio)” value does the source give for GGAUCUUCUCGAUCUAACAAAAAAGACAAAUCUGCCACAAAACUUGAGAGCAACUUCGGAUGCAGAGGCGGCAGCCGUCGGUGGCGCGAUUGCGCCAACGUUCUCAACUAUGACGCGCAAAACGCGUGCUCCGUGGAAUGGAGUUUAUCAUG here?
A: ≤ -4.2

Q: For GGAUCUUCUCGAUCUAACAAAAAAGACAAAUCUGCCACAAAACUUGAGAGCAUCUUCGGAUGCAGAGGCGGCAGCCUUCGGUGGCGCGAUAGCUCCAACGUUCUCAACUAUGACACGCAAAACGCGUGCUCCGUUGAAUGGAGUUUAUCAUG, which “polymerase ribozyme fitness (log ratio)” value is on record?
A: ≤ -4.2

Q: With GGAUCUUCUCGAUCUAACAAAAAAGACAAAUCUGCCACAAACCUUGAGUGCAUCUUCGGAUGCAGAGGCGGCAGCCUUCGGUGGCGAGCUAGCGCCAACGUUCUCAACUAUGACACGCAAAACGCGUGCUCCGUUGAAUGGAGUUUAUCAUG as the variant, how does the “polymerase ribozyme fitness (log ratio)” value read?
A: ≤ -4.2

Q: With GGAUCUUCUCGAUCUAACAAAAAAGACAAAUCUGCCACAAAACUUGAGAACAUCUUCGGAUGCAGAGGCGGCAGCCUUCGUUGGCGCGAUAGGGCCGACGUUCUCAACUGUGACUCGCAAAACCCGUGCUCCGUUGAAUGGAGUUUAUCAUG as the variant, how does the “polymerase ribozyme fitness (log ratio)” value read?
A: ≤ -4.2

Q: Which “polymerase ribozyme fitness (log ratio)” value does the source give for GGAUCUUCUCGAUCUAACAAAAAAGACAAAUCUGCCACAAAACUUGAGAGCAUCUACGGAUGCAGAGGCGGCAGCCUUCGGUGGAGCGAUAGCGCCAACGUUCGCAACUAUGACACGCAAAACGCGUGCUCCGUUGAAUGGAGUUUAUCAUG here?
A: ≤ -4.2

Q: With GGAUCUUCUCGAUCUAACAAAAAAGACAAAUCUGCCACAAAACGUGAGAGCAUCAUCGGAUGCAGAGGCGGCAGCCUUCGGUGGCGCCGUAGCGCCAAGGUUCUCAACUAUGACACGCAAAACGCGUGCUCCUUUGACUGGAGUUUUUCAUG as the variant, how does the “polymerase ribozyme fitness (log ratio)” value read?
A: ≤ -4.2

Q: For GGAUCUUCUCGAUCUAACAAAAAAGACAAAUCUGCCACAAAACUUGAGAACAUCUUUGGAUGCAGACGCGGCAGCCUUUGGUUGCGCGAUAGUGCCAACGUUCUCAACUAUGACACGCAAAACGCGUGCUCCGUUGAAUGGAGUUUAUCAUG, which “polymerase ribozyme fitness (log ratio)” value is on record?
A: ≤ -4.2

Q: For GGAUCUUCUCGAUCUAACAAAAAAGACAAAUCUGCCACAAAACUUGAUAGCAUCUUCUGAUGCAGAGGCGGCAGGCUUCGGUAGCGCGAUAGCGCCAACGUUCGCAACUAUGACACGCAAAACGCGUGCUCCGUUGAAUGGAGUUUAUCAUG, which “polymerase ribozyme fitness (log ratio)” value is on record?
A: ≤ -4.2
